The record followed here is patent US11155596B2, “Polypeptide” (AFFIBODY AB, priority 2016, dated 2021).

For assay [1], the system named is PD-L1 expressing THP-1 cells (IFNγ stimulated). Kind of assay: Cell binding analysis by FACS, THP-1 cells. The following applies: IFNγ stimulated THP-1 cells; 10 μg/ml His6-tagged Z variant (antibody 1 μg/ml); normalized against Z13091. Type of assay: cell-based. The method, then:
Cell binding analysis by FACS: The potential of Z variants to bind PD-L1 expressing cells was investigated using Fluorescence Activated Cell Sorting (FACS). THP-1 cells, cultivated in RPMI (Lonza, cat. no. BE12-702F) containing 10% FBS were stimulated with 10 ng/ml IFNg (R&D Systems, cat. no. 285-IF-100) overnight which results in up-regulation of PD-L1. 150,000 stimulated and unstimulated cells were pipetted per well of a v-bottomed 96 well plate (Nunc, cat. no. 277143) and the cells in the plate were subsequently pelleted at 400 g for 3 min at RT. The supernatants were removed and the cells were resuspended in 100 μl PBS plus 2.5% FBS (staining buffer) containing 10 μg/ml of the different His-tagged Z variants. […] Cells incubated with buffer alone were used as negative controls. The cells were incubated for 1 h at 8° C. in the dark, washed twice with 100 μl staining buffer and resuspended in 100 μl of staining buffer containing a goat anti-Z antibody (produced in house) at a concentration of 5 μg/ml. Cells stained with the positive control were treated with buffer only. The cells were incubated for 1 h at 8° C. in the dark, washed twice with 100 μl staining buffer and resuspended in 100 μl of staining buffer containing an Alexa Fluor 647 chicken anti-goat IgG antibody (Life technologies, cat. no. A21469) or an Alexa Fluor 647 goat anti-mouse IgG antibody (Life technologies cat. no. A21236). The cells were once again incubated for 1 h at 8° C. in the dark, washed twice with 100 μl staining buffer and resuspended in 200 μl of staining buffer. Data from 10,000 cells were obtained using a FACS Calibur ([…]) and the data was analyzed using Flowing software 2.5.0 (Turku University). Mean fluorescence intensity (MFI) was used as a read out of binding capacity.

In a further assay the target is hPD-L1 (Homo sapiens, UniProt Q9NZQ7). Kind of assay: Biacore kinetic analysis of primary Z variants, hPD-L1. It is filed as binding. As to conditions: His6-tagged Z variants over immobilized hPD-L1; 1:1 model. The protocol: (§1) Biacore kinetic and specificity analysis: Kinetic constants (ka and kd) and affinities (KD) for hPD-L1 were determined for 14 Hiss-tagged Z variants using a Biacore 2000 instrument (GE Healthcare). Some of the Z variants were also tested for binding against the sequence-related proteins hPD-L2, hB7-H3, hB7-H4 and mPD-L1 (mouse PD-L1 Fc Chimera, R&D Systems, cat. no. 1019-B7).
Sequence of hPD-L1 (Q9NZQ7 19-290): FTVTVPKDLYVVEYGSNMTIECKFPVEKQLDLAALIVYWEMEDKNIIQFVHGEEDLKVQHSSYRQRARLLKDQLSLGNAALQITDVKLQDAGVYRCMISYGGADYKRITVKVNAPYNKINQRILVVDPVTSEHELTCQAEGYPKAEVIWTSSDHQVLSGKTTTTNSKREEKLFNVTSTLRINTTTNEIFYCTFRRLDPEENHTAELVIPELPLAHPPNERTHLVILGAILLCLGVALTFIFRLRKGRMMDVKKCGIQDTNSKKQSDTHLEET
hPD-L1, hPD-L2, hB7-H3, hB7-H4 and mPD-L1 were immobilized in separate flow cells on the carboxylated dextran layer of different CM5 chip surfaces (GE Healthcare, cat. no. BR100012). The immobilization was performed using amine coupling chemistry according to the manufacturer's protocol and using HBS-EP as running buffer (0.01 M HEPES pH 7.4, 0.15 M NaCl, 3 mM EDTA, 0.005% v/v Surfactant P20, GE Healthcare, cat. no. BR100188). […] One flow cell surface on each chip was activated and deactivated for use as blank during analyte injections. In the kinetic experiment, HBS-EP was used as running buffer and the flow rate was 50 μl/min. The analytes, i.e. the Z variants, were each diluted in HBS-EP buffer within a concentration range of 1000 to 0.01 nM and injected for 5 min, followed by dissociation in running buffer for 15-25 min. After dissociation, the surfaces were regenerated with one or two injections of 0.1% SDS. Kinetic constants were calculated from the sensorgrams using the Langmuir 1:1 model of BiaEvaluation software 4.1 (GE Healthcare).

For another assay, the target named is T1, hPD-L1 binding to hPD-1 (Homo sapiens, UniProt Q9NZQ7).
T1 construct: 1086-PD-050 (hPD-1)
T1 sequence (Q9NZQ7 19-239 limits assumed): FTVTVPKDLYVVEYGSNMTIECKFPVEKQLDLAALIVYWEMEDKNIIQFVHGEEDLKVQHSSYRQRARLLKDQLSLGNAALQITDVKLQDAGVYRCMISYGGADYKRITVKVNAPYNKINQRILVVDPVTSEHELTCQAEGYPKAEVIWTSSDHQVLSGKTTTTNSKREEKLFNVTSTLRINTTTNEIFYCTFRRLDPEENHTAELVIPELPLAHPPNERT
The assay is described as follows: AlphaLISA blocking assay (Example 3). The following applies: His6-tagged Z variants 250 nM to 12 pM; 10 nM biotinylated hPD-L1; read-out: IC50 (M), inhibiting binding of PD-L1 to PD-1. The method, then: AlphaLISA blocking assay: The potential of Z variants to inhibit binding of PD-L1 to PD-1 was analyzed by AlphaLISA and recordings in an EnSpire multiplate reader 2300 (Perkin Elmer). hPD-1 (human PD-1 Fc-chimera; R&D Systems, cat. no. 1086-PD-050) was immobilized on AlphaLISA Acceptor beads (Perkin Elmer, cat. no. 6772002) according to the manufacturer's recommendations. Stepwise serial dilutions 1:3 of Hiss-tagged Z variants to final concentrations of 250 nM to 12 pM were made in a 384 plate (Perkin Elmer, cat. no. 6005350) and incubated for 1 h with 10 nM biotinylated hPD-L1 in AlphaLISA buffer (Perkin Elmer, cat. no. AL000F). hPD-1-coated Acceptor beads were added to a final concentration of 10 μg/ml and incubated for 1 h. Finally, streptavidin coated Donor beads (Perkin Elmer, cat. no. 6772002) were added to a final concentration of 40 μg/ml and incubated for 30 min. All incubations were performed at RT in the dark. The plate was analyzed in the EnSpire instrument and the IC50 values were calculated using GraphPad Prism 5.
(In general: Alpha assays give light when donor and acceptor beads are brought close together.)

Another assay addresses T2, hB7-H4 (Homo sapiens, UniProt Q7Z7D3).
T2 construct: purchased R&D Systems 6576-B7-50
T2 sequence (Q7Z7D3 25-282): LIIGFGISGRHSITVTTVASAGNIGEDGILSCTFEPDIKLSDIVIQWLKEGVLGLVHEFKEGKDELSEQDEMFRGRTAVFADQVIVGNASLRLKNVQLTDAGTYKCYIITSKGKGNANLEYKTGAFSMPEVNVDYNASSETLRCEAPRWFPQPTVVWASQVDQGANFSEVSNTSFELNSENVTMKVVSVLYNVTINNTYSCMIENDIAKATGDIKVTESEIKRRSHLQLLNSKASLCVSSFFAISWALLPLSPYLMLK
The assay is described as follows: Biacore specificity analysis of primary Z variants, hB7-H4. It is filed as binding. The protocol: as §1
hPD-L1, hPD-L2, hB7-H3, hB7-H4 and mPD-L1 were immobilized in separate flow cells on the carboxylated dextran layer of different CM5 chip surfaces (GE Healthcare, cat. no. BR100012). The immobilization was performed using amine coupling chemistry according to the manufacturer's protocol and using HBS-EP as running buffer (0.01 M HEPES pH 7.4, 0.15 M NaCl, 3 mM EDTA, 0.005% v/v Surfactant P20, GE Healthcare, cat. no. BR100188). The ligand immobilization levels on the surfaces were 468-894 RU for hPD-L1, 537-742 RU for hPD-L2, 383 RU for hB7-H3, 538-659 RU for hB7-H4 and 482 RU for mPD-L1. One flow cell surface on each chip was activated and deactivated for use as blank during analyte injections. In the kinetic experiment, HBS-EP was used as running buffer and the flow rate was 50 μl/min. The analytes, i.e. the Z variants, were each diluted in HBS-EP buffer within a concentration range of 1000 to 0.01 nM and injected for 5 min, followed by dissociation in running buffer for 15-25 min. After dissociation, the surfaces were regenerated with one or two injections of 0.1% SDS. Kinetic constants were calculated from the sensorgrams using the Langmuir 1:1 model of BiaEvaluation software 4.1 (GE Healthcare).

Bounds are passed on as bounds.

The Kd is the concentration at which binding is half-saturated. Low values mean a tighter complex, high ones a looser complex. Broadly, the IC50 is the concentration at which inhibition is half-maximal. As to “Z13080: primary PD-L1 binding Z variant (VDAKYAKERNSAAEEILHLPNLTMQQLWAFIWKLDDDPSQSSELLSEAKKLNDSQAPK; Engineered PD-L1 binding polypeptide)”, in assay [1], the “MFI (normalized)” value is given as 1.06. In the assay with hPD-L1, the Kd turned out to be 6.6 nM, the “ka” value came to 1.4e+06 M⁻¹ s⁻¹ and the “kd” value is 0.0092 s⁻¹. Also, in the assay with hPD-L1 binding to hPD-1, the IC50 was 2.7e-09 M.

In the case of “Z13088: primary PD-L1 binding Z variant (VDAKYAKERNNAATEILRLPNLTAGQTWAFIWKLDDDPSQSSELLSEAKKLNDSQAPK; Engineered PD-L1 binding polypeptide)”, in assay [1], the “MFI (normalized)” value is listed as 1.00. In the assay with hPD-L1, the “ka” value turned out to be 1.4e+06 M⁻¹ s⁻¹ and the “kd” value was 0.0037 s⁻¹. Moreover, the 50% inhibitory concentration (IC50) with hPD-L1 binding to hPD-1 came out at 8.8e-10 M.

As for “Z13120: primary PD-L1 binding Z variant (VDAKYAKERNRAANEILQLPNLTKGQVWAFIWKLDDDPSQSSELLSEAKKLNDSQAPK; Engineered PD-L1 binding polypeptide)”, the “MFI (normalized)” value in assay [1] was found to be 0.71. In the assay with hPD-L1, the dissociation constant (Kd) turned out to be 6 nM, the “ka” value turned out to be 2e+06 M⁻¹ s⁻¹ and the “kd” value is 0.012 s⁻¹. In addition, the IC50 with hPD-L1 binding to hPD-1 was found to be 4.2e-09 M.

Turning to “Z13147: primary PD-L1 binding Z variant (VDAKYAKERNRAAYEILQLPNLTHQQTWAFIWKLDDDPSQSSELLSEAKKLNDSQAPK; Engineered PD-L1 binding polypeptide)”, in assay [1], the “MFI (normalized)” value is reported as 0.56. In the assay with hPD-L1, the Kd was 1.6 nM, the “ka” value is 1e+06 M⁻¹ s⁻¹ and the “kd” value turned out to be 0.0017 s⁻¹. In addition, the IC50 with hPD-L1 binding to hPD-1 turned out to be 5.6e-09 M.

Take “Z13154: primary PD-L1 binding Z variant (VDAKYAKERNDAAYEILQLPNLTKRQVWAFIWKLDDDPSQSSELLSEAKKLNDSQAPK; Engineered PD-L1 binding polypeptide)”: the “MFI (normalized)” value in assay [1] was found to be 1.04. Moreover, in the assay with hPD-L1, the “ka” value was 2.3e+06 M⁻¹ s⁻¹ and the “kd” value was 0.0031 s⁻¹. In the assay with hPD-L1 binding to hPD-1, the half-inhibitory concentration (IC50) turned out to be 1.1e-09 M.

Take “Z13158: primary PD-L1 binding Z variant (VDAKYAKERNDAAFEILQLPNLTNSQHWAFIWKLEDDPSQSSELLSEAKKLNDSQAPK; Engineered PD-L1 binding polypeptide)”: the “MFI (normalized)” value in assay [1] is given as 0.91. In the assay with hPD-L1, binding was put at a Kd of 8.3 nM, the “ka” value was determined as 670000 M⁻¹ s⁻¹ and the “kd” value is 0.0056 s⁻¹. Also, the IC50 with hPD-L1 binding to hPD-1 is 2.4e-09 M.

“Z13164: primary PD-L1 binding Z variant (VDAKYAKERNNAAQEILQLPNLTQLQRWAFIWKLDDDPSQSSELLSEAKKLNDSQAPK; Engineered PD-L1 binding polypeptide)”: in assay [1], the “MFI (normalized)” value turned out to be 0.81. Besides, in the assay with hPD-L1, the Kd amounted to 11 nM, the “ka” value worked out at 790000 M⁻¹ s⁻¹ and the “kd” value worked out at 0.0087 s⁻¹. The concentration for half-maximal inhibition (IC50) in the assay with hPD-L1 binding to hPD-1 worked out at 2.3e-09 M.

Turning to “Z13165: primary PD-L1 binding Z variant (VDAKYAKERNYAAWEILRLPNLTASQYWAFIWKLDDDPSQSSELLSEAKKLNDSQAPK; Engineered PD-L1 binding polypeptide)”, the “MFI (normalized)” value in assay [1] is 1.24. Also, in the assay with hB7-H4 (1000 nM Z variant injected), the “SPR response against B7-H4” value is “some response”. The dissociation constant Kd in the assay with hB7-H4 (Biacore, immobilized hB7-H4, response seen at 1000 nM Z variant) is above 5000 nM. In the assay with hPD-L1, binding was put at a Kd of 0.64 nM, the “ka” value is 2e+06 M⁻¹ s⁻¹ and the “kd” value is 0.0013 s⁻¹. The IC50 with hPD-L1 binding to hPD-1 amounted to 1.3e-09 M.

As for “Z13169: primary PD-L1 binding Z variant (VDAKYAKERNRAAQEILVLPNLTRKQQWAFIWKLDDDPSQSSELLSEAKKLNDSQAPK; Engineered PD-L1 binding polypeptide)”, the “MFI (normalized)” value in assay [1] stood at 0.91. For the same substance, in the assay with hPD-L1, binding was put at a Kd of 1.5 nM, the “ka” value stood at 2.4e+06 M⁻¹ s⁻¹ and the “kd” value is 0.0035 s⁻¹. Further, the IC50 with hPD-L1 binding to hPD-1 was 2.2e-09 M.

Turning to “Z13198: primary PD-L1 binding Z variant (VDAKYAKERNAAAYEILTLPNLTNKQRWAFIWKLDDDPSQSSELLSEAKKLNDSQAPK; Engineered PD-L1 binding polypeptide)”, in assay [1], the “MFI (normalized)” value is given as 0.89. For the same substance, in the assay with hPD-L1, the equilibrium dissociation constant (Kd) stood at 0.97 nM, the “ka” value was determined as 5.8e+06 M⁻¹ s⁻¹ and the “kd” value turned out to be 0.0056 s⁻¹. The 50% inhibitory concentration (IC50) in the assay with hPD-L1 binding to hPD-1 turned out to be 1.3e-09 M.
